Laboratory results taken from the supplement of paper PMC12645437, “Orthogonal IMiD-Degron Pairs Induce Selective Protein Degradation in Cells” (ACS Chemical Biology, 2025).
This is one part of the list.

Each sequence was assayed against no compound (DMSO) (assay: log2 fold change of degron read counts, EGFP-low vs EGFP+ sorted cells; higher = lower degron-EGFP level without compound (poor expression or instability)). Details: compound: DMSO control; 18 h.
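Also: jurkat cells carrying a lentiviral library of mutant zinc finger degrons fused to EGFP plus mCherry, mCherry+ cells FACS sorted, degron abundance counted by next-generation sequencing.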

Row | Sequence | log2 fold change of degron read counts
1 | FYCNICGACFTQKGNLLRHIKL | 0.00797
2 | FGCDVCGAHFTQKGNLLRHIKL | -1.04
3 | FGCNQCGATFTQKGNLLRHIKL | -1.13
4 | FKCEICGHQFTQKGNLLRHIKL | -2.25
5 | FWCEICGAEFTQKGNLLRHIKL | -1.99
6 | LWCEICGFECTQKGNLLRHIKL | 1.35
7 | FMCDQCGAFFTQKGNLLRHIKL | -1.33
8 | FACNQCGRRFTQKGNLLRHIKL | -0.548
9 | FYCEICGHAFTQKGNLLRHIKL | -1.4
10 | FYCPQCGATFTQKGNLLRHIKL | 0.075
11 | FCCNQCGHYFTQKGNLLRHIKL | 0.903
12 | FCCEVCGAAFTQKGNLLRHIKL | -2.41
13 | FNCEICGHAFTQKGNLLRHIKL | -1.51
14 | FKCPICGHCFTQKGNLLRHIKL | -0.212
15 | LYCEICGFHCTQKGNLLRHIKL | 0.631
16 | FMCEICGRTFTQKGNLLRHIKL | -1.34
17 | FHCPQCGAYFTQKGNLLRHIKL | -0.057
18 | FFCNQCGHYFTQKGNLLRHIKL | 1.09
19 | FKCNICGAHFTQKGNLLRHIKL | -0.537
20 | FCCEVCGAKFTQKGNLLRHIKL | -2.04
21 | LACEICGFVCTQKGNLLRHIKL | -0.17
22 | LYCNQCGFTCTQKGNLLRHIKL | 0.984
23 | FYCPVCGAVFTQKGNLLRHIKL | 0.325
24 | FTCEVCGALFTQKGNLLRHIKL | -1.44
25 | FECEICGHDFTQKGNLLRHIKL | -1.02

Row | Sequence | log2 fold change of degron read counts
26 | FCCDVCGACFTQKGNLLRHIKL | -0.924
27 | FECDVCGAWFTQKGNLLRHIKL | -1.92
28 | FWCPQCGAVFTQKGNLLRHIKL | 1.02
29 | FVCNICGAWFTQKGNLLRHIKL | 0.514
30 | LYCNQCGFACTQKGNLLRHIKL | 0.71
31 | FSCPICGAQFTQKGNLLRHIKL | -0.221
32 | FWCPQCGATFTQKGNLLRHIKL | 0.379
33 | FGCEICGHWFTQKGNLLRHIKL | 0.918
34 | FFCPICGAMFTQKGNLLRHIKL | 0.296
35 | FNCDICGARFTQKGNLLRHIKL | -0.835
36 | FECNQCGRWFTQKGNLLRHIKL | -0.527
37 | FVCDICGAWFTQKGNLLRHIKL | -1.13
38 | FDCDICGANFTQKGNLLRHIKL | -0.811
39 | LTCPICGFSCTQKGNLLRHIKL | 0.354
40 | FTCPVCGAFFTQKGNLLRHIKL | 0.468
41 | FSCEICGAGFTQKGNLLRHIKL | -1.33
42 | FCCDQCGAHFTQKGNLLRHIKL | -2.36
43 | FECPICGRSFTQKGNLLRHIKL | -0.123
44 | FWCNICGAKFTQKGNLLRHIKL | -0.301
45 | FTCNICGAYFTQKGNLLRHIKL | 0.228
46 | FKCEQCGADFTQKGNLLRHIKL | -2.37
47 | FVCPICGRTFTQKGNLLRHIKL | -0.329
48 | FQCPICGRWFTQKGNLLRHIKL | 0.887
49 | FGCPICGRCFTQKGNLLRHIKL | 0.0055
50 | FSCEICGHFFTQKGNLLRHIKL | -0.134
